Results on 78 compounds are retold here after the supplement of paper PMC10600219.

Structures can show the parent of a compound that is named as a salt. Over roughly 2,800 compounds, “cell viability relative to vehicle” has its median near 1.1; the lowest 2% begin near 0.19. The list shows a part of the results.

The test system of the assay is NCI-H2228 parental. The assay is described as follows: cell viability relative to vehicle (fraction of vehicle); NCI-H2228 is an ALK-positive lung cancer line and DTP means drug-tolerant persister; higher = less growth inhibition. The conditions noted are these: 100 nM; treatment time 6 days. The procedure, abridged: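 The 3114-agent TargetMol anti-cancer compound library was tested at 100 nM for 6 days on parental NCI-H2228 cells and on persister cells derived with 1000 nM of a targeted drug for 13 days. ATP readout by the CellTiter-Glo 3D Cell Viability Assay gave cell viability relative to DMSO vehicle-treated cells.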
Regarding `CCCCCC/C=C\CCCCCCCc1cccc(O)c1C(=O)O` [Ginkgolic acid C15:1], the cell viability is 1.17.
For the compound `N=C(N)N` [Guanidine hydrochloride], the cell viability was determined as 1.13.
For the compound `C=C[C@H]1CN2CC[C@H]1C[C@@H]2[C@@H](O)c1ccnc2ccc(OC)cc12` [Quinidine hydrochloride], the cell viability is 0.919.
`Cc1cn([C@H]2C[C@H](F)[C@@H](CO)O2)c(=O)[nH]c1=O` [3'-Deoxy-3'-fluorothymidine]: the cell viability was found to be 0.969.
In the case of `COc1cc(/C=C/C(=O)N2CCC=CC2=O)cc(OC)c1OC` [Piperlongumine], the cell viability worked out at 1.
To `CN1C(C(=O)Nc2ccccn2)=C(O)c2sccc2S1(=O)=O` [Tenoxicam] belongs 1.16; to `N#Cc1ccc2[nH]cc(CCCCN3CCN(c4ccc5oc(C(N)=O)cc5c4)CC3)c2c1` [Vilazodone HCl], 1.1.
To `CCCOc1ccc2c(c1)CC[C@@H]1[C@@H]2CC[C@]2(C)[C@@H](OC)CC[C@@H]12` [Promestriene] belongs 1.33; to `Cn1cc(C(=O)Nc2ccc3c(c2)OCCO3)c2ccccc2c1=O`, 1.09; to `OCCNC1CCCc2c1[nH]c1ccc(-c3ccccc3)cc21` (stereo not drawn), 1.1.
Turning to `FC(F)(F)c1ccc(CNc2ccc(Cc3c[nH]c4ncc(Cl)cc34)cn2)cn1` [Pexidartinib], the cell viability was determined as 1.27.
As to `O=C(Nc1ccccc1)c1ccccc1O` [Salicylanilide], the cell viability is 1.17.
Regarding `Cn1c(=O)c2[nH]cnc2n(C)c1=O` [Aminophylline], the cell viability stood at 1.13.
For the compound `CS(=O)(=O)c1ccc(C2=C(c3ccccc3)C(=O)OC2)cc1` [Rofecoxib], the cell viability was determined as 0.999.
`CC(=O)c1cc([N+](=O)[O-])c(Sc2cccc(Cl)c2Cl)s1`: the cell viability came out at 1.04.
To `C#C[C@]1(O)CC[C@H]2[C@@H]3CCc4cc(OC5CCCC5)ccc4[C@H]3CC[C@@]21C` [Quinestrol] belongs 1.15.
The result for `CN(C)CCC=C1c2ccccc2CCc2ccccc21` [Amitriptyline hydrochloride] reads 1.13; that for `CCCNC(=O)[C@H]1O[C@@H]1C(=O)N[C@H](C(=O)N1CCC[C@H]1C(=O)OC)[C@@H](C)CC` [CA-074 methyl ester], 1.05; that for `Cc1[nH]c(=O)c(C#N)cc1-c1ccncc1` [Milrinone], 1.02.
For the compound `CC(C)[C@H](CO)Nc1nc(Nc2cccc(Cl)c2)c2ncn(C(C)C)c2n1` [Purvalanol A], the cell viability worked out at 1.09.
Regarding `COc1cc(Cc2cnc(N)nc2N)cc(OC)c1OC` [Trimethoprim], the cell viability amounted to 0.914.
Take `COc1cc2c(cc1OC)CN(CCc1ccc(NC(=O)c3cc(OC)c(OC)cc3NC(=O)c3cnc4ccccc4c3)cc1)CC2` [Tariquidar]: the cell viability amounted to 1.01.
For the compound `COc1ccc(S(=O)(=O)NCc2ccc(C(=O)NCCc3ccc(Cl)cn3)cc2)cc1`, the cell viability turned out to be 1.14.
As for `CN(C(=O)c1ccc(F)cc1C(F)(F)F)C1CCN(c2nnc(-c3ccnn3C)c3ccccc23)CC1` [Taladegib], the cell viability worked out at 0.997.
`C=C1C[C@@]23CC[C@H]4[C@@](C)(CCC[C@@]4(C)C(=O)O[C@@H]4O[C@H](CO)[C@@H](O)[C@H](O)[C@H]4O)[C@@H]2CC[C@]1(O[C@@H]1O[C@H](CO)[C@@H](O)[C@H](O)[C@H]1O[C@@H]1O[C@H](CO)[C@@H](O)[C@H](O)[C@H]1O)C3` [Stevioside]: the cell viability is 1.08.
The result for `CCN(CC)CCOC(=O)C(c1ccccc1)C1CCCCC1` (stereo not drawn) [Drofenine hydrochloride] reads 1.13.
Turning to `O=C1NCCSc2c1sc1ccc(O)cc21`, the cell viability was 1.05.
Take `Cc1cc(N2CCCCC2)nc2ccccc12`: the cell viability is 1.18.
Turning to `CC(C)(C)c1ccc(CN2CCN(C(c3ccccc3)c3ccc(Cl)cc3)CC2)cc1` (stereo not drawn) [Buclizine HCl], the cell viability was found to be 1.04.
The result for `COc1cc2c(cc1OC)C(=O)C(CC1CCN(Cc3ccccc3)CC1)C2` (stereo not drawn) [Donepezil HCl] reads 1.08; that for `CNCC[C@H](Oc1cccc2ccccc12)c1cccs1` [Duloxetine hydrochloride], 1.31.
Take `COc1ccc(S(=O)(=O)Nc2nc(-c3cccc([N+](=O)[O-])c3)cs2)cc1OC`: the cell viability came out at 1.04.
As to `C[C@@H](Oc1cc(-n2cnc3ccc(CN4CCN(C)CC4)cc32)sc1C(N)=O)c1ccccc1C(F)(F)F`, the cell viability worked out at 0.156.
On to `COc1ccc2[nH]c(C(=O)N3CCC(CC(C)(C)O)CC3)cc2c1`, for which the cell viability came out at 1.18.
Take `COc1ccccc1-c1cc(Nc2cccc(CS(N)(=O)=O)c2)ncn1`: the cell viability worked out at 1.22.
With `CC1(COc2ccc3c(c2)ncn3-c2ccc3cccc(N4CCC(N)CC4)c3n2)COC1` [Crenolanib], the cell viability was found to be 1.05.
In the case of `CN(C)C(=O)COC(=O)Cc1ccc(OC(=O)c2ccc(NC(=N)N)cc2)cc1` [Camostat mesilate], the cell viability came out at 0.829.
Regarding `C[C@@H]1CC[C@]2(C(=O)O)CC[C@]3(C)C(=CC[C@@H]4[C@@]5(C)CC[C@H](O)[C@@](C)(CO)[C@@H]5CC[C@]43C)[C@@H]2[C@]1(C)O` [Rutundic acid], the cell viability was 1.
As to `N=C(N)NC(=O)c1nc(Cl)c(N)nc1N` [Amiloride hydrochloride], the cell viability was found to be 1.04.
On to `CCCC[S+]([O-])c1sc2nc(-c3cccs3)cc(-c3ccccc3)c2c1N` (stereo not drawn), for which the cell viability amounted to 1.26.
For the compound `Nc1ccccc1NC(=O)c1ccc(CNC(=O)OCc2cccnc2)cc1` [Entinostat], the cell viability is 0.786.
For `c1ccc(CNc2ccccc2)cc1` [N-Phenylbenzylamine], the cell viability turned out to be 1.16.
For `COc1cc(O)c(CC=C(C)C)c2c1C(=O)CC(c1ccc(O)cc1)O2` (stereo not drawn) [Isoxanthohumol], the cell viability is 1.04.
On to `CCC(=O)N1CCOc2c(cc(-c3ccc(OC)c(OC)c3)cc2OC[C@H]2CCCN(C)C2)C1` [I-CBP112 hydrochloride], for which the cell viability worked out at 0.999.
The result for `O=[N+]([O-])c1ccc2c(c1)S(=O)(=O)C=C2` [Stattic] reads 1.04; that for `CC[C@H]1OC(=O)[C@H](C)[C@@H](O[C@H]2C[C@@](C)(OC)[C@@H](O)[C@H](C)O2)[C@H](C)[C@@H](O[C@@H]2O[C@H](C)C[C@H](N(C)C)[C@H]2O)[C@](C)(OC)C[C@@H](C)C(=O)[C@H](C)[C@@H](O)[C@]1(C)O` [Clarithromycin], 1.38.
The result for `COc1ccc(-c2coc3cc(O[C@@H]4O[C@H](CO)[C@@H](O)[C@H](O)[C@H]4O)ccc3c2=O)cc1` [Ononin] reads 1.02; that for `CN(C)CC[C@H](CSc1ccccc1)Nc1ccc(S(=O)(=O)NC(=O)c2ccc(N3CCN(Cc4ccccc4-c4ccc(Cl)cc4)CC3)cc2)cc1[N+](=O)[O-]`, 1.24.
For the compound `C[C@H]1COC2=C1C(=O)C(=O)c1c2ccc2c1CCCC2(C)C` [Cryptotanshinone], the cell viability came out at 0.906.
`NC(=O)Cc1cccc(C(=O)c2ccccc2)c1N` [Nepafenac]: the cell viability was 1.14.
In the case of `CCCCC1=NC2(CCCC2)C(=O)N1Cc1ccc(-c2ccccc2-c2nnn[nH]2)cc1` [Irbesartan], the cell viability was 0.998.
As to `O=C(Nc1cc(C(F)(F)F)ccc1O)Nc1cc(C(F)(F)F)ccc1O`, the cell viability is 1.03.
To `O=C1N[C@@H](Cc2c[nH]c3ccccc23)C(=O)N2CCC[C@@H]12` [Brevianamide F] belongs 1.05; to `NC(=O)c1ncn([C@@H]2O[C@H](CO)[C@@H](O)[C@H]2O)n1` [Ribavirin], 1.21; to `O=C(NCc1ccncc1)C12CC3CC(C1)CC(c1ccc(Cl)cc1)(C3)C2`, 1.05.
Regarding `CCOC(=O)[C@H](CCc1ccccc1)N[C@@H](C)C(=O)N1[C@H](C(=O)O)C[C@@H]2CCC[C@@H]21` [Ramipril], the cell viability came out at 1.06.
Turning to `CCOc1ccc2c(c1)C(C)=CC(C)(C)N2` [Ethoxyquin], the cell viability turned out to be 1.12.
To `Cc1ccc(S(=O)(=O)n2c(N)nc3ccccc32)cc1` belongs 1.06; to `CNC(=O)c1ccc(-c2cnc3ncc(Cc4ccc5ncccc5c4)n3n2)cc1F` [Capmatinib], 1.05.
`CNC(=O)c1ccc(-c2cnc3ncc(Cc4ccc5ncccc5c4)n3n2)cc1F` [Capmatinib 2HCl]: the cell viability is 1.
To `NCC(=O)Nc1ccc(-n2nc(C(F)(F)F)cc2-c2ccc3c(ccc4ccccc43)c2)cc1` belongs 0.937; to `COc1ccc(-c2nc3cc(C4=NNC(=O)CC4C)ccc3[nH]2)cc1` (stereo not drawn) [Pimobendan], 1.12; to `COc1ccc(-c2cnc3c(-c4cccc5ncccc45)cnn3c2)cc1`, 1.04.
Regarding `NS(=O)(=O)c1cc2c(cc1Cl)N=CNS2(=O)=O` [Chlorothiazide], the cell viability is 1.17.
Regarding `CNS(=O)(=O)Cc1ccc2[nH]cc(CCN(C)C)c2c1` [Sumatriptan succinate], the cell viability came to 0.997.
On to `O=c1c(O)c(-c2ccc(O)c(O)c2)oc2cc(O)ccc12` [Fisetin], for which the cell viability was 1.08.
As to `O=C(COc1ccc(Cl)cc1)NC1CCC(NC(=O)COc2ccc(Cl)cc2)CC1` (stereo not drawn) [ISRIB (trans-isomer)], the cell viability was 1.11.
Regarding `O=C(COc1ccc(Cl)cc1)NC1CCC(NC(=O)COc2ccc(Cl)cc2)CC1` (stereo not drawn), the cell viability worked out at 1.18.
`COc1cc2ncnc(Oc3cccc(NC(=O)Nc4cc(C(C)(C)C(F)(F)F)on4)c3)c2cc1OC`: the cell viability was 1.28.
For the compound `CCc1cc2c(=O)c(-c3nc4ccccc4s3)coc2c(CN2CCCCC2)c1O`, the cell viability is 1.06.
The result for `Cc1cc(C2CCCCC2)n(O)c(=O)c1` [Ciclopirox] reads 1.35; that for `O=C(O)c1ccc2c(c1)C(=O)c1ccccc1C2=O`, 0.972.
Turning to `O=C(O)CCc1ccc(O)cc1O` [Hydroumbellic acid], the cell viability was 1.06.
To `CNC(=O)c1ccccc1Nc1nc(Nc2ccc3c(c2OC)CCC[C@H](N2CCN(CCO)CC2)C3)ncc1Cl` belongs 0.607; to `CCc1cncnc1N1CCN(Cc2nc3ccc(C(F)(F)F)cc3[nH]2)CC1`, 1.06; to `COc1ccc2ccc(=O)oc2c1` [Herniarin], 1.1.
The result for `CCOc1cc([C@@H](CS(C)(=O)=O)N2C(=O)c3cccc(NC(C)=O)c3C2=O)ccc1OC` [Apremilast] reads 1.12.
As for `COc1cc(/C=C/C(=O)OC[C@H]2O[C@H](O[C@]3(CO)O[C@H](CO)[C@@H](O)[C@@H]3OC(=O)/C=C/c3cc(OC)c(O)c(OC)c3)[C@H](O)[C@@H](O)[C@@H]2O)cc(OC)c1O` [3,6'-Disinapoyl sucrose], the cell viability amounted to 0.963.
